Reference: the RNAGym collection of RNA variant scans (doi:10.7554/elife.90254)
Read counts are not given, so values of variants with three or more changes are uncertain.

B1: OR4K15 (parent)
chain: GUUAACGGUCAUAGGCCAUGGAAACUAGGAGCACCAUUUCGCUGCCAGUGAAGAAAUGAACAAAGAAAAUCUGGGCCAGGCAGGCAUCAAAAGAAAUAGUCUUGCGCUCAACCAGAAAGUCUGUAAUCAUUUUAAGGGUA

Variants of: B1
Assay: self-cleavage, relative activity (ratio to wild type); higher = more cleavage; in vitro, sequencing; the parent is a self-cleaving ribozyme

Variant	self-cleavage
U9C U49C A95G	1.69
A11C A62U U103C	1.86
A11G A22U A56G A118G U127C	0.68
A11G A47U A56U A60G	0.51
A11G A23G U49A A78U	0.3
A11C G84A A92G	2.69
A11G A47G C128U	0.14
A11G A60C A68U A69G U72G	0.32
A11G A22G G28C	1.53
U9C A60G A69G U70C	0.08
A11C A24C U39A A56U U131C	1.51
A11G A18U A59G A111G	0.03
U9C C35U A86C	0.39
U9C A33G U39A A59U A94U U97C U102C	0.51
C10A G31A A90G	0.74
U9C C17U A36G U57G U103C	0.09
U9C A56G A63G	1.81
U9C U19C U87C	1.85
A11G A27G U39A A68G	1.05
A11G A60G A117U U139C	0.3
U9C A47U U49A A54G A78U A114G	0.24

Variant	self-cleavage
U9C C71U G138U	0.93
A11G A52G A82C A129G	0.06
U9C U38C U70A A126G	0.28
A11G A22G A63G	1.59
U9C U39C A55G A86U U132C	1.05
A11G A56G A64G A110U	1.09
U9C A51G U57C G137A	1.34
A11C A96G A140G	2.65
U9C A94G U127C	1.8
U9C A91C A92G U102A A118G	1.17
U9C U120C U132C	1.25
U9C U37C A59G A60G U70C A86U U122A	0.19
A11G A36G A59G C81U A125G	0.09
U9G U102C U130A U131C	1.12
U9C G21A U57C A126U	0.47
U9C A33G U127A	1.43
A11G A22G A47G	0.72
U9C U57C U100A U130C U132C	0.77
C10U A36U A91U U108C U124C U132A	0.01
U9C A51G A56U A67G G93A	1.75
A11G A30U U132C	0.81

Variant	self-cleavage
A11C G29U A47G A63G A95G	1.99
C10A A47G A135G	1.13
U9G U87C A92G C113U	0
U9C U43C A68G U70A	0.76
U9C A92G C121U	2.37
C10U C17A A62G A82U	0.15
U9C A64G U70A	0.79
C10U A33G A95G U127A	0.83
U9C C25A U49C U102A	0.71
U9C U19A A55G U102C	1.29
A11G A23G A54G U102C	1.02
U9C U37C A60G A126G	0.92
A11C G20U U38C U103C	1.24
A11G A62U U124C	0.92
A11G A22G A30U A66G A94G A114G	0.66
U9C A52U A63G A135G	1.95
U9C A86U A135G	2.99
U9C A68G U108C	0.01
C10U A11G U19C	1.32
U9C C16U A54G A60G	0.84
A11G A23G A59G U127C	0.53

Variant	self-cleavage
U9C A78U A90G	0.22
U9C U38C A59G A114G	0.55
A11C G20U A69G G73A A95G A118G	0.05
U9C A59C U72G G74A A89G U132C	0.2
A11G A33G G58U A69G A90G	0.53
U9C U72A A126G	0.28
U9C U19A U39C A47G	0.44
U9C U37C A134G	2.22
U9C U39A U87A	1.52
U9C U26C A62G A95G	1.75
A11G A30U A86G A111U U120A U131C	0.03
U9C A89G A92G	1.97
U9C U57C U72A G73U A90G A126G	0.24
U9C U127A G138U	1.84
A11G A52G A56G A59G A60G A62G A82G	0.38
U9C A95G U122A U131C	1.9
U9C A33G A82G	0.32
A11G A52U A78G	0.33
A11C U103C U124A A135G	0.31
U9C A54G A68G U72A	0.28
